# Laboratory results taken from PubChem BioAssay AID1259400 (National Center for Advancing Translational Sciences (NCATS), 2018).
# About 2,100 (0.6%) of roughly 350,000 compounds were called active. The shares of active, inactive and inconclusive entries below differ from those in the screen.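 The calls were made as follows: active = activity change of -60% or lower, but not beyond a set lower limit; inconclusive = change between -60% and -40%, or beyond the set limit; inactive = change above -40%.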
# Biological target: Relaxin receptor 1 (Homo sapiens) (UniProt Q9HBX9)
# Test: qHTS Assay for Antagonists of the Relaxin Receptor RXFP1
# Conditions: HEK293-RXFP1, relaxin-stimulated cAMP HTRF, 30 min; at 57.5 µM; active compounds read low
# % is scaled to controls: 0 for no effect and ±100 for the full control effect.
# Sequence of UniProt Q9HBX9 (Q9HBX9 whole entry, looked up): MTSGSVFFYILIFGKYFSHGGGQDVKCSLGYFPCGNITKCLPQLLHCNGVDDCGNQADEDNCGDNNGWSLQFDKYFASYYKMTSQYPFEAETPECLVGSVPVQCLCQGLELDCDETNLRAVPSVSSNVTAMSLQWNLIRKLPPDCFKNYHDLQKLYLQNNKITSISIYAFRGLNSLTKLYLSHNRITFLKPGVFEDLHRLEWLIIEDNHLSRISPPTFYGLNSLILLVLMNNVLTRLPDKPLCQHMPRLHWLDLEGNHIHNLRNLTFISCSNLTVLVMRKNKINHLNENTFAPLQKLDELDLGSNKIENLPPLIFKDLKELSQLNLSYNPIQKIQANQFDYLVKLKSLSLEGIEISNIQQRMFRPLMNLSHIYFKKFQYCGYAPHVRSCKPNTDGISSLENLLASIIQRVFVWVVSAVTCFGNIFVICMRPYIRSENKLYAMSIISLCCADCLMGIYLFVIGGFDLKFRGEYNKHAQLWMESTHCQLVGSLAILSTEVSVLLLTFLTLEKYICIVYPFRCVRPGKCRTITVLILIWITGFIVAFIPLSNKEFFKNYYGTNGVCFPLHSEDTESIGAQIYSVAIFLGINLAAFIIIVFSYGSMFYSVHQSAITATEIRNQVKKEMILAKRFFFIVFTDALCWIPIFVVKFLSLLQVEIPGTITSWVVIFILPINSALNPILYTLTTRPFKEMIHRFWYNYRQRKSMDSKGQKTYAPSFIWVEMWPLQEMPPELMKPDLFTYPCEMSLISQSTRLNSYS
row,Compound,"activity change, negative = inhibition"
1,Cc1ccc(NC(=O)/C(=C/c2ccc([N+](=O)[O-])cc2)NC(=O)c2ccccc2)cc1,inconclusive: -44.8%
2,O=C(C1CCC(CNc2nc(=S)[nH]c3ccccc23)CC1)N1CCN(c2ccc(F)cc2)CC1 (stereo unspecified),inconclusive: -59.5%
3,O=C(Nc1ccc(N2CCOCC2)c(Cl)c1)c1ccc(Br)o1,inactive: 3.61%
4,CC(=O)c1c(C)[nH]c(=S)c(C#N)c1-c1ccc(F)cc1,inactive: 7.17%
5,COc1ccc2[nH]c3c(=O)n(CCCC(=O)NC4CCCCC4C)c(=S)[nH]c3c2c1 (stereo unspecified),active: -65.6%
6,CCc1ccc(CN(Cc2ccco2)C(=O)COc2ccc(Cl)cc2C)cc1,active: -68.8%
7,O=C(CCc1nnc2n(Cc3ccc(Cl)cc3)c(=O)c3ccccc3n12)N1CCN(c2ccccn2)CC1,inactive: 10.6%
8,CC1CCCN(c2ccc(C(=O)NCc3ccccc3)cn2)C1 (stereo unspecified),inactive: 13%
9,COCCNC(=O)/C(C#N)=C/c1cccc(NC(=O)c2ccccc2Cl)c1,inconclusive: -45%
10,COc1ccc(-c2cc(C)no2)cc1S(=O)(=O)Nc1ccc(NC(C)=O)cc1,inconclusive: -57.3%
11,COc1cccc(/C=C(\C#N)c2nc3ccc(C)cc3[nH]2)c1,inconclusive: -48.2%
12,Cc1nc(N2CCN(S(=O)(=O)c3ccc(Br)cc3)CC2)c2c(C)c(C)sc2n1,inconclusive: -40.4%
13,O=C(O)CSc1ccnc2cc(Cl)ccc12,inactive: 20.4%
14,C=C(C)c1nc(Oc2ccccc2)nc(Oc2ccccc2)n1,inconclusive: -48.7%
15,CCN(CC)CCOc1ccc(C(O)(Cc2ccc(Cl)cc2)c2ccc(C)cc2)cc1 (stereo unspecified),active: -91.2%
16,O=C1/C(=C/c2ccncc2)SC(=S)N1Cc1ccccc1,active: -98.8%
17,CC(C)Cc1nnc(NC(=O)Nc2ccccc2)s1,inconclusive: -55.3%
18,O=C(CNC(=O)c1ccc(Cl)cc1Cl)OCn1nnc2ccccc2c1=O,inactive: 10.1%
19,COc1ccc(/C=C/C(=O)Nc2ccc(Cl)c(Cl)c2)cc1OC,inconclusive: -43.9%
20,COc1ccc(CNC(=O)Cc2coc3ccc(C(C)C)cc23)cc1,inconclusive: -40%
21,O=C(Nc1ccc(N2CCCC2)cc1)c1cccc(Cl)c1Cl,inactive: -25.7%
22,Cc1ccc(CSc2nnc(CNc3ccc(F)cc3)o2)cc1,inconclusive: -52.5%

row,Compound,"activity change, negative = inhibition"
1,Cc1ccc(C(C)C)c(OCC(=O)Nc2nc3c(s2)CCCC3)c1,active: -85%
2,CCc1nc(Nc2cccc(O)c2)c2oc3ccccc3c2n1,active: -76.2%
3,CC(C)(C)NCC(O)COc1ccc(NC(=O)NC2CCCCC2)cc1 (stereo unspecified),inactive: 5.22%
4,CCCc1cc(=O)n2nc(N3CCC(C(=O)N4CCN(c5cccc(OC)c5)CC4)CC3)sc2n1,inactive: 2.4%
5,CCc1ccccc1NC(=O)C(=O)c1cc(C)n(-c2ccccc2F)c1C,inconclusive: -41.2%
6,CCOC(=O)c1ccc(COc2ccc(C(C)C)cc2)o1,inconclusive: -48.5%
7,COc1cc(/C=N/Nc2nc3ccccc3s2)ccc1O,inconclusive: -56.7%
8,NC(=O)COc1ccc(C(=O)/C=C2/C(=O)Nc3ccccc32)cc1,inconclusive: -42%
9,COc1ccc(S(=O)(=O)N(C(=O)c2ccco2)c2cc3sc(=O)oc3c3ccccc23)cc1,inconclusive: -52%
10,Cc1ccccc1C1CC(c2ccc(Br)cc2)Nc2nc(N)nn21 (stereo unspecified),inconclusive: -47.8%
11,COc1ccc(C2=NN(C(=S)Nc3ccccc3)C(c3ccccc3)C2)cc1 (stereo unspecified),inactive: -21.1%
12,Cc1ccc(NC(=O)CCCn2c(=O)c3cccn3c3cccnc32)cc1C,inactive: 0.129%
13,CC(C)[C@@H]1CC[C@@H](C)C[C@H]1OC(=O)C[n+]1cc(-c2ccc(Cl)cc2)n2c1CCCCC2,active: -73.9%
14,Nc1nnnn1-c1ccccc1,active: -73.8%
15,CCOC(=O)c1cnc2ccc(C)cc2c1Nc1ccc(N(CC)CC)cc1,active: -70.4%
16,CCOC(=O)c1cc(-c2ccc(OC)cc2)n(CCC(=O)NC2CCCCC2)c1C,inconclusive: -52.3%
17,COc1ccc2c(CNC3CCCCCC3)c(C(=O)O)n(Cc3ccccc3F)c2c1,inconclusive: -44%
18,O=C(COc1ccccc1)Nc1nccs1,inactive: 2.71%
19,Cc1cc(C)c[n+](C2=C([O-])c3ccccc3C(=O)/C2=N\S(=O)(=O)c2cccs2)c1,inactive: 0.314%
20,CC(C)CNC(=S)N1CCN(c2nc(-c3ccc(Cl)cc3)cs2)CC1,inconclusive: -50.3%
21,Cc1ccc(NC(=O)CN2C(=O)NC(C)(c3ccccc3)C2=O)c(C)c1 (stereo unspecified),inactive: 8.01%
22,Cc1nn(-c2ccccc2)c(Cl)c1/C=N/NC(=O)c1[nH]ncc1Br,inconclusive: -42.9%

row,Compound,"activity change, negative = inhibition"
1,Cc1nc(-c2ccc(Cl)cc2)oc1COC(C)(C)C(=O)O,inactive: -19%
2,CCOC(=O)c1sc(NC(=O)Cn2nnc3sc4c(c3c2=O)CCCC4)nc1C,inactive: 1.25%
3,Cc1ccccc1-n1nc(CO)c(C(=O)NCC(c2ccccc2)c2ccccc2)n1,inconclusive: -56.1%
4,Cc1cc(/C=N/n2c(COc3ccccc3)nc3ccccc3c2=O)c(O)c([N+](=O)[O-])c1,inconclusive: -52.8%
5,Cc1ccc(/C=C/C(=O)Nc2ccc(Oc3ccccc3)cc2)o1,inconclusive: -41.9%
6,COc1cc(C(=O)Nc2ccc3c(c2)N(C(=O)CCN(C)C)c2ccccc2CC3)cc(OC)c1OC,inconclusive: -40.8%
7,CCOC(=O)C1=C(C)N(CC)C(=S)NC1c1ccc(Cl)cc1 (stereo unspecified),inconclusive: -43.8%
8,O=C1NC(=Nc2ccccc2)S/C1=C\C=C\c1ccco1,active: -102%
9,NC(=O)c1nsc(C(=O)N(c2ccc(Cl)cc2)C(C(=O)NCC2CCCO2)c2cccs2)c1N (stereo unspecified),active: -62.3%
10,Cc1cccc(N2CCN(c3ncnc4c3nc3n4CCCCC3)CC2C)c1 (stereo unspecified),active: -69.5%
11,N#Cc1ccc(C23CC4CC(CC(C4)C2)C3)[nH]c1=O,inactive: 5.24%
12,Cc1ccc2nc(Cl)c(/C=N/NC(=O)[C@H]3C[C@@H]3c3ccccc3)cc2c1,inactive: 13.4%
13,O=C1N/C(=C/c2ccc(N3CCOCC3)o2)C(=O)N1c1ccccc1,inconclusive: -46.5%
14,O=c1ccc2c(-c3ccccc3)c3ccc(O)cc3oc-2c1,inactive: -5.95%
15,O=C(CN1CCN(c2ccccn2)CC1)Nc1cccc(Cl)c1Cl,inconclusive: -47.8%
16,O=S(=O)(/N=S1/CC=CCN1S(=O)(=O)c1ccccc1)c1ccccc1 (stereo unspecified),active: -72%
17,Nc1ccc(O)c([N+](=O)[O-])c1,inconclusive: -48.1%
18,Cc1ccc(C(=O)Oc2cc(-c3ccc4c(c3)OCO4)cc(=O)c3c(C)oc(C)c23)cc1,inconclusive: -40.6%
19,COc1ccc(C(=O)/C=C/c2ccc(OCc3ccccc3)cc2)cc1CSCC(=O)O,inconclusive: -50.9%
20,Clc1ccc(-c2csc(-c3ccno3)n2)cc1,inactive: -16.7%
21,CCc1ccc(N(C(=O)c2snc(C(N)=O)c2N)C(C(=O)NCC2CCCO2)c2ccco2)cc1 (stereo unspecified),inconclusive: -43.4%
22,COc1ccc(C(=O)CSc2[nH]c(=O)cc(C(F)(F)F)c2C#N)cc1,inconclusive: -48.9%

row,Compound,"activity change, negative = inhibition"
1,CNC(=O)C1CCC(Cn2c(=O)c3sccc3n(CC(=O)NCc3ccc(C)cc3)c2=O)CC1 (stereo unspecified),inactive: -16.1%
2,CCN(CC)c1ccc(/C=C2\SC(=O)N(C(C)C)C2=O)o1,active: -82.5%
3,Cc1cccc(OCC(=O)NNC(=O)C2CCN(c3ncnc4sc(C)c(C)c34)CC2)c1,inconclusive: -56.3%
4,CCSc1nnc(NC(=O)c2nc(S(=O)(=O)Cc3ccc(F)cc3)ncc2Cl)s1,inconclusive: -40.4%
5,COc1cccc2cc(C(=O)C3=C(O)C(=O)N(Cc4ccco4)C3c3cccnc3)oc12 (stereo unspecified),inactive: 8.3%
6,CCOC(=O)N1CCc2c(sc3c2c(=O)n(Cc2ccccc2)c(=O)n3CC(=O)Nc2cccc(C)c2)C1,inactive: 4.91%
7,COC(=O)c1sc(-c2ccccc2)cc1NC(=O)Nc1ccccc1Cl,inconclusive: -53.5%
8,O=C1C=C(c2ccccc2)C[C@H](c2cccs2)[C@H]1n1nnc([N+](=O)[O-])n1,inconclusive: -48.9%
9,C=C(C)Cn1c(CCn2c3ccccc3c3ccccc32)n[nH]c1=S,active: -65.1%
10,CN(C)C(=O)CSc1nnc(-c2ccc(S(=O)(=O)N3CCCC3)cc2)n1C,inconclusive: -53%
11,CN(C)CCCNc1cc(-c2ccccc2)nc2cc(-c3cccc(F)c3)nn12,inactive: 12.2%
12,COc1cc(C2/C(=C(\O)c3ccc4c(c3)CC(C)O4)C(=O)C(=O)N2CCCn2ccnc2)cc(OC)c1OC (stereo unspecified),inactive: -6.74%
13,CCN1CCN(CCNC(=O)c2ccc(/C=C3/Sc4ccccc4N(Cc4cccc(Cl)c4)C3=O)cc2)CC1,inconclusive: -43.9%
14,CC(=O)c1c(C)[nH]c(C(=O)COC(=O)CCSc2ccccc2)c1C,active: -63.9%
15,CCOC(=O)C1CCCN(C(=O)c2ccc3c(=O)n(Cc4ccccc4OC)c(=S)[nH]c3c2)C1 (stereo unspecified),inconclusive: -43%
16,COc1ccc(C)cc1NC(=O)c1nn(-c2ccccc2)cc1OC,inconclusive: -41%
17,Cc1ccccc1-n1nc2c(c1NC(=O)c1ccc(Br)o1)CSC2,inconclusive: -45.7%
18,O=[N+]([O-])c1ccccc1/C=C/C=N/n1c(-c2ccco2)n[nH]c1=S,inconclusive: -43.4%
19,Cn1c(=O)c2sccc2n2c(CCCC(=O)N3CCCCC3)nnc12,inactive: 4.28%
20,CC(C)[C@H](NC(=O)OC(C)(C)C)c1nnc(S(=O)(=O)Cc2c(F)cccc2Cl)o1,inconclusive: -42.4%
